pIC50: −log10 of the molar value. At least one structure is not confirmed: it was looked up by name or label, or the drawing left a doubt. Starred links: 1 amine or outer side, 2 acyl side, 3 side chain; linkers in the order of their positions; H or OH if unused. Positions of bridges follow the written chain, without caps; N, C: chain ends. Non-standard residues stand in square brackets, D forms with d. Residues, ends and D or L forms follow the SMILES beside them. Groups on a side chain read outwards from the residue. *: point of attachment. CH3O(CH2CH2O)11CH2CH2CO = COCCOCCOCCOCCOCCOCCOCCOCCOCCOCCOCCOCCC(=O)*; PEG12 = NCCOCCOCCOCCOCCOCCOCCOCCOCCOCCOCCOCCOCCC(=O)O; Ala(1H-tetrazol-5-yl) = N[C@@H](Cc1nnn[nH]1)C(=O)O; His(τ-Bzl) = N[C@@H](Cc1cn(Cc2ccccc2)cn1)C(=O)O; C18 diacid = O=C(O)CCCCCCCCCCCCCCCCC(=O)*; X15 = O=C([C@H](CCc1nnn[nH]1)N[*:1])[*:2]; Dip = N[C@H](C(=O)O)C(c1ccccc1)c1ccccc1; Phe(3-NH2) = Nc1cccc(C[C@H](N)C(=O)O)c1; Phe(3-Me) = Cc1cccc(C[C@H](N)C(=O)O)c1; Phe(4-Me) = Cc1ccc(C[C@H](N)C(=O)O)cc1; γGlu = O=C(O)[C@H](CCC(=O)[*:2])N[*:1]; Butanoyl(4-Ph) = O=C(CCCc1ccccc1)*; Palmitoyl = CCCCCCCCCCCCCCCC(=O)*; β3hF = N[C@H](CC(=O)O)Cc1ccccc1; Isovaleryl = CC(C)CC(=O)*; AEEA = NCCOCCOCC(=O)O; Ahx = NCCCCCC(=O)O
Columns and labels:
ferroportin [1] = biological target: T1, ferroportin (Homo sapiens, UniProt Q9NP59); assay: FPN activity assay: internalization/degradation of ferroportin-GFP in stably transfected HEK293 cells, decrease in GFP fluorescence; type: cell-based; parameters: expressed in transfected cells; conditions: HEK293 cells stably expressing ferroportin-GFP, at least 18 hours incubation; read-out: FPN EC50
T1 sequence (Q9NP59 1-571): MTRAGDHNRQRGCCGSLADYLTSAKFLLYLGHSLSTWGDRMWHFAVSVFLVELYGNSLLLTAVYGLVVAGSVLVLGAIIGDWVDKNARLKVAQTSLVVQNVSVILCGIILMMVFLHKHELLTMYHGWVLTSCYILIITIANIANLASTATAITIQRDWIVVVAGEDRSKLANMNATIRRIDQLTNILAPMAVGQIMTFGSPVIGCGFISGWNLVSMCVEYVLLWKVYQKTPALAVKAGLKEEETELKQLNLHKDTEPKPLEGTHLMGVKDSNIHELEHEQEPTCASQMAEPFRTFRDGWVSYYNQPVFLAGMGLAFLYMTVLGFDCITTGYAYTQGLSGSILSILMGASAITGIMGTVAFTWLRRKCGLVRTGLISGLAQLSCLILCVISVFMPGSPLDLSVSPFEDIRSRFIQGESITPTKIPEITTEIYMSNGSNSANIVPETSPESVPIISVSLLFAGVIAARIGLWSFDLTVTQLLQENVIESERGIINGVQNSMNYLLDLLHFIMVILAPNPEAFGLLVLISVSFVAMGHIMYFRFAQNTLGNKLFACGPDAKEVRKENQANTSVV

ferroportin [2] = biological target: T1, ferroportin; assay: T47D cell-based ferroportin internalization assay in presence of 0.5% mouse serum albumin (MSA), AF647-conjugated detection peptide, flow cytometry; parameters: a human breast carcinoma adherent cell line which endogenously expresses ferroportin; host or cells: T47D; conditions: T47D cells, 1 hr incubation
Method: The potency of the peptides in causing ferroportin internalization was evaluated in a T47D cell-based assay. […] In this internalization assay, the potency of the test peptides was evaluated in presence of serum albumin which is the main protein component in the blood. T47D cells were maintained in RPMI media (containing required amount of fetal bovine serum) and regularly sub-cultured. In preparation for the assay, the cells were seeded in 96-well plates at a density of 80-100 k cells per well in 100 ul volume and allowed to rest overnight. On the next day, test peptides were first prepared in dilution series (10-point series, starting concentration of ˜5 μM, typically 3-4×fold dilution steps), all with 0.5% mouse serum albumin (MSA purified from mouse serum; Sigma, A3139). The test peptide dilution series were allowed to incubate at room temperature for 30 min. Then the media was aspirated from the 96-well cell plate and test peptide dilution series were added. After 1 hr incubation, the media with test peptides was aspirated out and AF647-conjugated detection peptide was added at fixed concentration of 200 nM. The AF647-conjugated detection peptide was previously verified to bind to ferroportin and cause its internalization. The cells were washed again after a 2 hr incubation in preparation for flow cytometry analysis. The Median Fluorescence Intensity (MFI) of the AF647-positive population was measured (after removing dead cells and non-singlets from the analysis). The MFI values were used to generate a dose-response curve and obtain IC50 potencies for the test peptides. The IC50 potencies were calculated by using 4-parameter non-linear fitting function in Graphpad Prism (Table 2A).

CC[C@H](C)[C@@H]1NC(=O)[C@@H](NC(=O)[C@@H]2CCCN2C(=O)[C@@H](NC(=O)[C@H](Cc2c[nH]cn2)NC(=O)[C@@H](NC(=O)[C@H](Cc2nn[nH]n2)NC(=O)CCCc2ccccc2)[C@@H](C)O)C(c2ccccc2)c2ccccc2)CSSC[C@@H](C(N)=O)NC(=O)[C@@H](CCCCN)NC(=O)C[C@H](Cc2ccccc2)NC(=O)[C@H](CCCCNC(=O)COCCOCCNC(=O)COCCOCCNC(=O)CC[C@H](NC(=O)CCCCCCCCCCCCCCCCC(=O)O)C(=O)O)NC1=O [Compd 41, 4Benzyl-[Tet1]-T-H-[Dpa]-P-[Cys]-I-[Lys(1PEG2_1PEG2_IsoGlu_C18_Diacid)]-[bhPhe]-[(D)Lys]-[Cys]-NH2] ({Butanoyl(4-Ph)}-[Ala(1H-tetrazol-5-yl)]TH[Dip]PCIK([AEEA-AEEA-γGlu-C18 diacid])[β3hF][dK]C-NH2; disulfide 6-11)
DC50 (ferroportin [1]): 10 to 100 nM

CC[C@H](C)[C@@H]1NC(=O)[C@@H](NC(=O)[C@@H]2CCCN2C(=O)[C@@H](NC(=O)[C@H](Cc2cn(Cc3ccccc3)cn2)NC(=O)[C@@H](NC(=O)[C@H](Cc2nn[nH]n2)NC(=O)CC(C)C)[C@@H](C)O)C(c2ccccc2)c2ccccc2)CSSC[C@@H](C(N)=O)NC(=O)[C@@H](CCCCN)NC(=O)C[C@H](Cc2ccccc2)NC(=O)[C@H](CCCCNC(=O)COCCOCCNC(=O)COCCOCCNC(=O)CC[C@H](NC(=O)CCCCCCCCCCCCCCCCC(=O)O)C(=O)O)NC1=O [Compd 15, Isovaleric Acid-[Tet1]-T-[His_Bzl]-[Dpa]-P-[Cys]-I-[Lys(1PEG2_1PEG2_IsoGlu_C18_Diacid)]-[bhPhe]-[(D)Lys]-[Cys]-NH2] (Isovaleryl-[Ala(1H-tetrazol-5-yl)]T[His(τ-Bzl)][Dip]PCIK([AEEA-AEEA-γGlu-C18 diacid])[β3hF][dK]C-NH2; disulfide 6-11)
DC50 (ferroportin [1]): 100 to 500 nM | pIC50 (ferroportin [2]): 7.00 to 8.00

CC[C@H](C)[C@@H]1NC(=O)[C@@H](NC(=O)[C@@H]2CCCN2C(=O)[C@H](Cc2ccc(C)cc2)NC(=O)[C@H](Cc2c[nH]cn2)NC(=O)[C@@H](NC(=O)[C@H](Cc2nn[nH]n2)NC(=O)CC(C)C)[C@@H](C)O)CSSC[C@@H](C(N)=O)NC(=O)[C@@H](CCCCN)NC(=O)C[C@H](Cc2ccccc2)NC(=O)[C@H](CCCCNC(=O)COCCOCCNC(=O)COCCOCCNC(=O)CC[C@H](NC(=O)CCCCCCCCCCCCCCCCC(=O)O)C(=O)O)NC1=O [Compd 21, Isovaleric Acid-[Tet1]-T-H-[Phe_4Me]-P-[Cys]-I-[Lys(1PEG2_1PEG2_IsoGlu_C18_Diacid)]-[bhPhe]-[(D)Lys]-[Cys]-NH2] (Isovaleryl-[Ala(1H-tetrazol-5-yl)]TH[Phe(4-Me)]PCIK([AEEA-AEEA-γGlu-C18 diacid])[β3hF][dK]C-NH2; disulfide 6-11)
DC50 (ferroportin [1]): > 500 nM

CC[C@H](C)[C@@H]1NC(=O)[C@@H](NC(=O)[C@@H]2CCCN2C(=O)[C@@H](NC(=O)[C@H](Cc2c[nH]cn2)NC(=O)[C@@H](NC(=O)[C@H](Cc2nn[nH]n2)NC(=O)CC(C)C)[C@@H](C)O)C(c2ccccc2)c2ccccc2)CSSC[C@H](C(=O)O)NC(=O)[C@@H](CCCCN)NC(=O)C[C@H](Cc2ccccc2)NC(=O)[C@H](CCCCNC(=O)COCCOCCNC(=O)COCCOCCNC(=O)CC[C@H](NC(=O)CCCCCCCCCCCCCCCCC(=O)O)C(=O)O)NC1=O [Compd 34, Isovaleric Acid-[Tet1]-T-H-[Dpa]-P-[Cys]-I-[Lys(1PEG2_1PEG2_IsoGlu_C18_Diacid)]-[bhPhe]-[(D)Lys]-d[Cys]] (Isovaleryl-[Ala(1H-tetrazol-5-yl)]TH[Dip]PCIK([AEEA-AEEA-γGlu-C18 diacid])[β3hF][dK][dC]-OH; disulfide 6-11; N-terminus and C-terminus assumed)
DC50 (ferroportin [1]): 100 to 500 nM

CC[C@H](C)[C@@H]1NC(=O)[C@@H](NC(=O)[C@@H]2CCCN2C(=O)[C@@H](NC(=O)[C@H](Cc2c[nH]cn2)NC(=O)[C@@H](NC(=O)[C@H](Cc2nn[nH]n2)NC(=O)CC(C)C)[C@@H](C)O)C(c2ccccc2)c2ccccc2)CSSC[C@@H](C(N)=O)NC(=O)[C@@H](CCCCNC(=O)CCOCCOCCOCCOCCOCCOCCOCCOCCOCCOCCOCCOC)NC(=O)C[C@H](Cc2ccccc2)NC(=O)[C@H](CCCCNC(=O)COCCOCCNC(=O)COCCOCCNC(=O)CCCCCNC(=O)CCCCCCCCCCCCCCCCC(=O)O)NC1=O [Compd 54, Isovaleric_Acid-[Tet1]-T-H-[Dpa]-P-[Cys]-I-[Lys(1PEG2_1PEG2_Ahx_C18_Diacid)]-[bhphe]-[(D)Lys(PEG11_OMe)]-[Cys]-NH2] (Isovaleryl-[Ala(1H-tetrazol-5-yl)]TH[Dip]PCIK([AEEA-AEEA-Ahx-C18 diacid])[β3hF][dK](CH3O(CH2CH2O)11CH2CH2CO)C-NH2; disulfide 6-11)
pIC50 (ferroportin [2]): 6.30 to 7.00

CC[C@H](C)[C@@H]1NC(=O)[C@@H](NC(=O)[C@@H]2CCCN2C(=O)[C@H](Cc2cccc(N)c2)NC(=O)[C@H](Cc2c[nH]cn2)NC(=O)[C@@H](NC(=O)[C@H](Cc2nn[nH]n2)NC(=O)CC(C)C)[C@@H](C)O)CSSC[C@@H](C(N)=O)NC(=O)[C@@H](CCCCN)NC(=O)C[C@H](Cc2ccccc2)NC(=O)[C@H](CCCCNC(=O)COCCOCCNC(=O)COCCOCCNC(=O)CC[C@H](NC(=O)CCCCCCCCCCCCCCCCC(=O)O)C(=O)O)NC1=O [Compd 23, Isovaleric Acid-[Tet1]-T-H-[Phe_3NH2]-P-[Cys]-I-[Lys(1PEG2_1PEG2_IsoGlu_C18_Diacid)]-[bhPhe]-[(D)Lys]-[Cys]-NH2] (Isovaleryl-[Ala(1H-tetrazol-5-yl)]TH[Phe(3-NH2)]PCIK([AEEA-AEEA-γGlu-C18 diacid])[β3hF][dK]C-NH2; disulfide 6-11)
DC50 (ferroportin [1]): > 500 nM

CC[C@H](C)[C@@H]1NC(=O)[C@@H](NC(=O)[C@@H]2CCCN2C(=O)[C@H](Cc2cccc(C)c2)NC(=O)[C@H](Cc2c[nH]cn2)NC(=O)[C@@H](NC(=O)[C@H](Cc2nn[nH]n2)NC(=O)CC(C)C)[C@@H](C)O)CSSC[C@@H](C(N)=O)NC(=O)[C@@H](CCCCN)NC(=O)C[C@H](Cc2ccccc2)NC(=O)[C@H](CCCCNC(=O)COCCOCCNC(=O)COCCOCCNC(=O)CC[C@H](NC(=O)CCCCCCCCCCCCCCCCC(=O)O)C(=O)O)NC1=O [Compd 20, Isovaleric Acid-[Tet1]-T-H-[Phe_3Me]-P-[Cys]-I-[Lys(1PEG2_1PEG2_IsoGlu_C18_Diacid)]-[bhPhe]-[(D)Lys]-[Cys]-NH2] (Isovaleryl-[Ala(1H-tetrazol-5-yl)]TH[Phe(3-Me)]PCIK([AEEA-AEEA-γGlu-C18 diacid])[β3hF][dK]C-NH2; disulfide 6-11)
DC50 (ferroportin [1]): 100 to 500 nM

CCCCCCCCCCCCCCCC(=O)NCCOCCOCCOCCOCCOCCOCCOCCOCCOCCOCCOCCOCCC(=O)NCCCC[C@@H]1NC(=O)[C@H]([C@@H](C)CC)NC(=O)[C@@H](NC(=O)[C@@H]2CCCN2C(=O)[C@@H](NC(=O)[C@H](Cc2c[nH]cn2)NC(=O)[C@@H](NC(=O)[C@H](CCc2nnn[nH]2)NC(=O)CC(C)C)[C@@H](C)O)C(c2ccccc2)c2ccccc2)CSSC[C@@H](C(N)=O)NC(=O)[C@@H](CCCCN)NC(=O)C[C@H](Cc2ccccc2)NC1=O [Compd 2, Isovaleric Acid-[Tet2]-T-H-[Dpa]-P-[Cys]-I-[Lys(PEG12_Palm)]-[bhPhe]-[(D)Lys]-[Cys]-NH2] (Isovaleryl-[X15]TH[Dip]PCIK([PEG12-Palmitoyl])[β3hF][dK]C-NH2; disulfide 6-11)
DC50 (ferroportin [1]): 10 to 100 nM
